22 molecules from publication PMC12136788 can be followed below.

The other results are listed elsewhere or left out.

T1: UNK ZnF1-3 (human, UniProt Q9C0B0 31-174)
T1 sequence: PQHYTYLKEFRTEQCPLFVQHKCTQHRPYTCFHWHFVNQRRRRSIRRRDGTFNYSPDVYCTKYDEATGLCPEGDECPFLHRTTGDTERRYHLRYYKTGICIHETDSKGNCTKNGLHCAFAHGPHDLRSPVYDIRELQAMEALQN

B1: chr3:123074269:123074270:-_ENSMUSG00000028114_ENSMUST00000029759|perfect_dup|motif|central (ssRNA)
RNA: GGGAGUUCUACAGUCCGACGAUCGCGUCUUCUACCAAGACAAAAAUGCUCAAUUAUAUGAAAAAUUUCUACAGGUUUUUCGGUAUUGCCAAUUUCAGGUUCUUCUGUGAUAAUUAAGUCAAUGUCAACAUUAGCAUGAAUGAACAACAGAGGAUUGAGCAUCA
B2: chr3:55757038:55757039:-_ENSMUSG00000027799_ENSMUST00000029374|mus_hu|motif|central (ssRNA)
RNA: GGGAGUUCUACAGUCCGACGAUCCAUUGGAGCAACAGUUUGUACAGCUGGAAGGUUUUUGCUAGUAGCACCAUUCACAAAACGGGAAGAGGAGGAAGAGGAGGAGGACCCUGAAUCCACGGCACCUGUUGUAUUAAUCAUACUCAACAGAGGAUUGAGCAUCA
B3: chr11:77340908:77340909:-_ENSG00000074201_ENST00000525064|hu_hu|FALSE|FALSE (ssRNA)
RNA: GGGAGUUCUACAGUCCGACGAUCACUUCGGUCCCUGGAUAAUGCAUGUAAACUAAUGGUGGGGUAUUCCAGUGAGAAUCCUAAUCCAGAGCCAUCUAACCAAGACAGGCGGCUCUCAGCGAUGUAAAGGGUACCAGUGCCGAGCAACAGAGGAUUGAGCAUCA
B4: 14672338_14672458_75_3pUTR_ENSMUSG00000024642_ENSMUST00000052011|mouse|control|control (ssRNA)
RNA: GGGAGUUCUACAGUCCGACGAUCCAUUUCCUUUUCUUCCUUCCUGUUUUUUUAGCCCCAAAUUGAAGGGGAUUAUAAAAAUAAAAGAGCGAAACGCUUGCGGCUUUUUAAAAUUCUCUUUCAAACUCUGCGAACACCACCUCACAACAGAGGAUUGAGCAUCA
B5: chr6:41757443:41757444:+_ENSG00000214736_ENST00000398881|hu_mus|hu_hu_hu_mus_False|8_38 (ssRNA)
RNA: GGGAGUUCUACAGUCCGACGAUCGAACCGUGCAGAGGCAACAUCUCAGCCGACACUGGGGGAUGGGGGGGCAGUGGGGGGGGGUUCAGGCAAGGAGAAGAAAAGUGCUUCAGCUGCCACUCAGGUAGCUGCCAUCAGUCACAGCAACAGAGGAUUGAGCAUCA
B6: chr1:187196858:187196859:+_ENSMUSG00000026615_ENSMUST00000046514|mus_mus|FALSE|FALSE (ssRNA)
RNA: GGGAGUUCUACAGUCCGACGAUCAACAUCCCACUUGGUGCCAACUGAGCGGAAGGCCUGCUGGGCCUCAAGAAAGCCAAACCAGCGUUUAACGUGGACUAGAGUUUUGUUCUGUUUCAAGUGUUCCUGCCAUGCAGCACUUCCCAACAGAGGAUUGAGCAUCA
B7: chr8:86465610:86465611:+_ENSMUSG00000013033_ENSMUST00000141158|mus_mus|motif|central (ssRNA)
RNA: GGGAGUUCUACAGUCCGACGAUCUUGAGAAUGAGAGGAACACAGAGACAGCAAAAAAGGACACAACGGAAAGUUGAAUAGCGGGGAAAACUCAAAAGAAAAAGACCUAGAGAAAAAGAAUGAGCAAGAUUCAGGAGCAAAUGACAACAGAGGAUUGAGCAUCA
B8: chr4:48207216:48207217:-_ENSMUSG00000028343_ENSMUST00000030028|mus_hu|FALSE|FALSE (ssRNA)
RNA: GGGAGUUCUACAGUCCGACGAUCCUAGUAGUGCAAGUUAAUGGUAAGUUUCUGGCAAUGUCACCUUUCAUUUGAUUUAUAAAACUUUUACAGGACAGAUUUAAAGUGGAGAUAGGCCUCUGAUUUUUAUUUUUAAAUCCUAGCCAACAGAGGAUUGAGCAUCA
B9: 118675932_118681251_813_3pUTR_ENSG00000135090_ENST00000392533|human|control|control (ssRNA)
RNA: GGGAGUUCUACAGUCCGACGAUCUAAUGGCAGCGAUCUCCACUUCCUGAAGUGGUUUUUUAUGAACUUCUAAUAAAUCAGAGGCUGAGCCUAAGCAAUAUUCCAUCACCAACCAAGCAGUGUGUUCUUUCAAGUAACAGCCUUCAACAGAGGAUUGAGCAUCA
B10: chr12:39763582:39763583:-_ENSG00000139116_ENST00000544797|hu_mus|hu_hu_hu_mus_False|88_88 (ssRNA)
RNA: GGGAGUUCUACAGUCCGACGAUCCUCUAGGAACUGGGCAUUCACUUUAAAAUCUGGAGGGGGCAGCCCGUUUUUAAUCGCUGAGGUCUUUUUCUCAUCAAUACUCUUGAACAGGUGUCUAACAGCACGAGAGAUGAUGCCCUGCAACAGAGGAUUGAGCAUCA
B11: chr1:8037743:8037744:+_ENSG00000116288_ENST00000493373|perfect_dup|motif|central (ssRNA)
RNA: GGGAGUUCUACAGUCCGACGAUCUCCAUUCAUCAUUUUGUCUUUAGCAAGAGGGUGUGUUGUAACUUUACUUCCAAAACCGGUUUCAUGAGCCAACAGAGCAGUAGGACCUGCACAGAUGGCGGCUAUCAGGCCCUUCCGGUUCAACAGAGGAUUGAGCAUCA
B12: chr4:148551591:148551592:-_ENSMUSG00000063077_ENSMUST00000060537|mus_hu|mus_mus_mus_hu_False|1_68 (ssRNA)
RNA: GGGAGUUCUACAGUCCGACGAUCACCUGACAAAAUUAAAUAUCCCUGUAAAUUAGACAAUAAGCAGCAGGUAACAAAGUCUUUGCUUUGGAAUAUGUGCCAGGAAAAGUCAUCUUGUUUUUAGAUCUCAAGAGACACAACCAUCAACAGAGGAUUGAGCAUCA
B13: chr11:85008163:85008164:-_ENSMUSG00000018481_ENSMUST00000018625|mus_hu|motif|central (ssRNA)
RNA: GGGAGUUCUACAGUCCGACGAUCAGCAUUUUCAUACUGAUUCAUGUCAUAAUUAUAUAAAGAAGCCAGAUGUCCCACUGAAAGGGCGGCUUCAUAAUCUUCUUGACCAAGAAGUUGUUCUUUAAUCUGAAUUGCUUUGAUGUGCAACAGAGGAUUGAGCAUCA
B14: chr3:10015032:10015033:+_ENSMUSG00000027533_ENSMUST00000029046|mus_mus|mus_mus_mus_hu_True|38_38 (ssRNA)
RNA: GGGAGUUCUACAGUCCGACGAUCGUUUUUACCAUCACAAGUGAUGAUACAAUCUGGCUUGGCCAUUGCGCCCAUUUUUCGCAAAGCUAUUCCCACUCCUAGCUCUUUCAUGUAUUCAUCAAAGCCUUUGCUGUCCACCAGGCGCAACAGAGGAUUGAGCAUCA
B15: chr13:48919227:48919228:+_ENSG00000139687_ENST00000267163|hu_mus|FALSE|FALSE (ssRNA)
RNA: GGGAGUUCUACAGUCCGACGAUCCUUGGUACUGGUAUCGAUUUCUUUUAAUAAGUCAAAGAAUUUAUAGACACUGGUUUCUAUGCUUUUCUGUAGCUCAGUAAAAGUGAAUGGCAUCUCAUCUAGAUCAACUGCUGCGAUAAACAACAGAGGAUUGAGCAUCA
B16: 9583757_9588413_1475_CDS_ENSG00000119203_ENST00000238112|human|control|control (ssRNA)
RNA: GGGAGUUCUACAGUCCGACGAUCUAUGUGAACUUCAUCGUUAUCUUCAUAUUCUCGAAUCAGUGCUGCUUUCAAUCUGGCCAUUUCAUUCUGUUCUCCAUGGACUAAAAUCACAUGAGGCGGUUUCAAAGCACGAAUAAAUUCCAACAGAGGAUUGAGCAUCA
B17: chr1:244855233:244855234:+_ENSG00000121644_ENST00000302550|hu_mus|hu_hu_hu_mus_True|78_108 (ssRNA)
RNA: GGGAGUUCUACAGUCCGACGAUCCAUUAAAUGAUAAGCGUUGCCCUUAUACUCUUUUCCCAGUUCUUCUACAAUUUUCUCUAUAUCAUCUUCUAGAAAGUCCGUACUUCCUAGAACAACAGCUUCUUUAAAUUUAAAUGUUUCCAACAGAGGAUUGAGCAUCA
B18: chr4:115894766:115894767:+_ENSMUSG00000028698_ENSMUST00000030464|mus_hu|mus_mus_mus_hu_True|8_88 (ssRNA)
RNA: GGGAGUUCUACAGUCCGACGAUCUUCCACACGGAAAUGUACUUCGGGUUUCCAACGGGCCAGUACCAGUCCGGCCAAACUACCCGAACAGGGUCCUCCCCCUCUCUCCUACAGAACACAACAAAAUAACAAAAUACUUUCAAGCAACAGAGGAUUGAGCAUCA
B19: chr1:39494447:39494448:+_ENSG00000168653_ENST00000372967|hu_mus|hu_hu_hu_mus_False|38_38 (ssRNA)
RNA: GGGAGUUCUACAGUCCGACGAUCGCACCGAGCGGCGUUCUUAUAGGGCUGUUCUGCGCUUAGGAACAUAAAGUGCCGGUCCAGGCUGAUGCCCAGCCUUUUCUGGAUGUCAAGGAAAGGCAUGGCUCUGCAGUGCCCUUGUCACAACAGAGGAUUGAGCAUCA
B20: chr4:17845017:17845018:+_ENSG00000109805_ENST00000514176|hu_mus|hu_hu_hu_mus_False|28_108 (ssRNA)
RNA: GGGAGUUCUACAGUCCGACGAUCGCUUCCUAACUUAGUAUCUUCAUUAAGGAACUCUGCAAGGUUAAGUUUACUUUUCUGUAGCGCAGCUGUUUUGGCUCGUCUGGUAGUCUCAUCCUUCAUUUCUGAUGGUGGUUCAUGAUCCAACAGAGGAUUGAGCAUCA
B21: chr1:65854986:65854987:+_ENSG00000116675_ENST00000371069|hu_hu|FALSE|FALSE (ssRNA)
RNA: GGGAGUUCUACAGUCCGACGAUCGAGGAUGCUGGGAUUGACAUCUUUUGUGCAGUAAUGUUCCCAUGGUGGAGUUAAGUCUAUUACUUUGUCAUGGGGCUGUAGUUCUACAUCCAGUGUCACCUGAAAUAGCUGAGGAUAUUUCAACAGAGGAUUGAGCAUCA
B22: chr1:185089287:185089288:-_ENSG00000121486_ENST00000367506|hu_mus|FALSE|FALSE (ssRNA)
RNA: GGGAGUUCUACAGUCCGACGAUCUGGCGGCAUCUGGCCUUCUGAUUGUGCUCCAGUGUAAGUGGGGGUGCUGUACUUUAGCAAGAUGGAUUUAAACUGCAUCAGAGGGGCAUCGGUACGGAUGCCCAUUGGGUCAAAGUGAGUCAACAGAGGAUUGAGCAUCA

This assay concerns the target T1, UNK ZnF1-3. The experiment in a line: nsRBNS (natural sequence RNA bind-n-seq); RBNS binding buffer (assumed for nsRBNS): 25 mM Tris pH 7.5, 150 mM KCl, 3 mM MgCl2, 0.01% Triton X-100, 500 ug/ml BSA, 20 U/ml SUPERase-In, 4 C; UNK is unkempt and MSI1 is Musashi-1; names of the RNAs are library labels; protein concentration not given here; high values mean tight binding.
Regarding B1, the binding signal was 1.08 enrichment R.
B2 had a binding signal of 1.85 enrichment R.
As for B3, the binding signal was determined as 1.48 enrichment R.
B4 gave a binding signal of 2.12 enrichment R.
Turning to B5, the binding signal was found to be 1.69 enrichment R.
Turning to B6, the binding signal is 1.51 enrichment R.
In the case of B7 it was 2.36 enrichment R; in that of B8, 1.46 enrichment R.
In the case of B9, the binding signal was 1.34 enrichment R.
B10: the binding signal worked out at 1.84 enrichment R.
In turn, B11 displayed a binding signal of 0.883 enrichment R.
As for B12, the binding signal came to 1.37 enrichment R.
Regarding B13, the binding signal is 1.27 enrichment R.
On to B14, for which the binding signal amounted to 0.703 enrichment R.
The molecule B15 had a binding signal of 0.953 enrichment R.
With B16, the binding signal worked out at 1.22 enrichment R.
Regarding B17, the binding signal was 0.965 enrichment R.
In the case of B18, the binding signal worked out at 1.25 enrichment R.
In turn, B19 returned a binding signal of 0.84 enrichment R.
Take B20: the binding signal turned out to be 0.5 enrichment R.
In the case of B21, the binding signal stood at 1.29 enrichment R.
In the case of B22 it was 1.44 enrichment R.
